Hit rate of the full screen: of about 310,000 compounds, about 2,200 (0.71%) showed an effect of 50% or more. Effects have a minus sign here. This is one part of the list.
molecular target: human ether-à-go-go-related gene (hERG) potassium channel (human, UniProt Q12809); test: primary screen, population patch clamp on CHO cells stably expressing hERG
Sequence (Q12809 whole entry, looked up): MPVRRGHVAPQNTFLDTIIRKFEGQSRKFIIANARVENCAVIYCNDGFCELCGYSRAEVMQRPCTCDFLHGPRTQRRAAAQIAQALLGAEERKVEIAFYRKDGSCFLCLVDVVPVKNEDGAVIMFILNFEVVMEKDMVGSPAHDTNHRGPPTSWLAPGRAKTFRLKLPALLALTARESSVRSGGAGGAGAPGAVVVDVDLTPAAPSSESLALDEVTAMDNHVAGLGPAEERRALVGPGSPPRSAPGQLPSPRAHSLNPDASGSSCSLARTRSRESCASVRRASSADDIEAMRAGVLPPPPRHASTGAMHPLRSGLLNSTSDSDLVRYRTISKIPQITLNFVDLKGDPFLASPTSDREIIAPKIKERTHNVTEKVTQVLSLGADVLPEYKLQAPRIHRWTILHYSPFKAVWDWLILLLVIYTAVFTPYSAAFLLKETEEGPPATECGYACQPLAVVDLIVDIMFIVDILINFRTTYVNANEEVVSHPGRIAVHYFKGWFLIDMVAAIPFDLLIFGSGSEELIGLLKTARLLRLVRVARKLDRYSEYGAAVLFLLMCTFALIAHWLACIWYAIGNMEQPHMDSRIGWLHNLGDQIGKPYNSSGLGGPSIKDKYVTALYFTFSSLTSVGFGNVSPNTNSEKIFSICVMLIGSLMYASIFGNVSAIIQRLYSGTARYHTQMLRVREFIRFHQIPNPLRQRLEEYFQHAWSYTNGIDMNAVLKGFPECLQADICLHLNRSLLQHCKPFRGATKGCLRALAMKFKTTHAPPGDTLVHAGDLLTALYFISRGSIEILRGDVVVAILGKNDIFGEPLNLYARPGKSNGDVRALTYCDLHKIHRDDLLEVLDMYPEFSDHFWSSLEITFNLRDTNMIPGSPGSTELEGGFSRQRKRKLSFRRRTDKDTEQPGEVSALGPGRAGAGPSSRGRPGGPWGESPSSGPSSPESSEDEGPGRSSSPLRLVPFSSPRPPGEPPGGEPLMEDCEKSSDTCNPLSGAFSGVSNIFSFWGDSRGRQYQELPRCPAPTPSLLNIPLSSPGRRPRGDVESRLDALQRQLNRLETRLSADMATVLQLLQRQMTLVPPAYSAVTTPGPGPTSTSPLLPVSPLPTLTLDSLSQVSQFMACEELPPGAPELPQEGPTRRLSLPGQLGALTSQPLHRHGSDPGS

Row | Compound | hERG current change (%, negative = inhibition) at 1uM [%]
1 | CCN(C(=O)CSc1nnc(COc2ccccc2F)n1N)C1CCS(=O)(=O)C1 (centres unmarked) | 11.1
2 | CCOc1ccccc1NC(=O)C(OC(=O)c1ccccc1O)c1ccccc1 (centres unmarked) | -2.03
3 | CN1CCCC(OC(=O)c2cc(F)c(F)c(F)c2F)C1.Cl (centres unmarked) | 12.3
4 | Cc1ccc(S(=O)(=O)N2CCCCC2)cc1NC(=O)COC(=O)c1ccc(=O)[nH]c1 | 11.5
5 | COc1ccc(-c2nnn(CC(=O)N(Cc3ccccc3Cl)C(C(=O)NCC3CCCO3)c3ccco3)n2)cc1OC (centres unmarked) | 15.7
6 | Cc1ccc(N2CC(C(=O)N3CCOCC3)CC2=O)cc1Cl (centres unmarked) | -1.46
7 | Cc1ccc(S(=O)(=O)NC2CC2)s1 | 6.4
8 | O=C(Cc1c(F)cccc1Cl)Nc1ccccc1C(=O)N1CCCCC1 | -4.41
9 | CCc1ccc(-c2cc(C(=O)NN3CCOCC3)c3ccccc3n2)s1 | 6.18
10 | C=CCOc1ccc(/C=N/O)cc1Cl | 14.5
11 | COc1ccccc1Oc1c(C)oc2cc(OC(=O)c3ccco3)ccc2c1=O | 3.32
12 | CCc1nnc(SCC(=O)Nc2ccc(F)cc2)o1 | 14.8
13 | CCOC(=O)Cn1c(=O)oc2cc(S(=O)(=O)N(CCN(C)C)Cc3ccccc3)ccc21 | -0.0088
14 | Cl.O=C(CCN1CCCC1)Nc1ccccc1 | 5.05
15 | Cc1ccnc(SCCn2c(N3CCN(Cc4ccccc4)CC3)nc3c2c(=O)[nH]c(=O)n3C)n1 | 12.1
16 | O=C(NCCc1ccccc1)c1ccc(-c2ccccc2C(F)(F)F)o1 | 2.13
17 | COc1ccc(N2CCN(CC(=O)NC(=O)NCc3ccccc3)CC2)cc1 | 18.6
18 | N#Cc1c(-n2cccc2C=O)sc2c1CCCC2 | 4.62
19 | COc1ccccc1/C=C(/CC(=O)NCc1ccc2c(c1)OCO2)c1nc2ccccc2s1 | 12.2
20 | O=C1C=C(NCc2ccc(Cl)c(Cl)c2)CC1 | -0.816
21 | O=C(NNS(=O)(=O)c1ccccc1[N+](=O)[O-])c1cc2ccccc2cc1O | 9.77
22 | COC(=O)c1ccc(NC(=O)CSc2nnc(-c3ccccc3)n2C)cc1 | 10.7
23 | COc1cccc(NC(=O)c2ncc(Cl)c(Cl)c2Cl)c1 | -5.42

Row | Compound | hERG current change (%, negative = inhibition) at 1uM [%]
24 | O=C(COC(=O)c1ccc(NS(=O)(=O)c2ccc3c(c2)OCCO3)cc1)NC1CC1 | 2.56
25 | CCOC(=O)N1CCN(S(=O)(=O)N2CCCC(C(=O)NCCCN3CCCCC3CC)C2)CC1 (centres unmarked) | 6.17
26 | O=C(c1ccoc1)N1CCC2(CC1)Oc1ccc(F)cc1C(=O)C21CC(c2cccnc2)=NO1 (centres unmarked) | -1.27
27 | CCOCC(O)CNC(=O)c1ccc(OC2CCN(C(=O)c3cccnc3)CC2)cc1 (centres unmarked) | 22.1
28 | O=C1NCC(COc2ccc(Cl)cc2)O1 (centres unmarked) | 19.9
29 | COc1ccc(CNC(=O)CS(=O)(=O)Cc2nc(-c3cccc(OC)c3)oc2C)cc1 | 6.6
30 | O=C(O)C1C2CCC(C2)C1C(=O)NCCC1=CCCCC1 (centres unmarked) | 10.4
31 | CCc1nc(SCc2nc3ccccc3[nH]2)c2oc3ccccc3c2n1 | 14.7
32 | O=C(NCc1ccc2c(c1)OCO2)c1cc2n(n1)C(C(F)(F)F)CC(c1ccc3c(c1)OCO3)N2 (centres unmarked) | 8.69
33 | Clc1cc(Br)ccc1OCCOCCN1CCOCC1 | -4.31
34 | Cn1cc(CNCc2ccc(-n3cccn3)cc2)c(-c2ccccc2F)n1 | -35.4
35 | CCCCn1c(N)c(N(CC(C)C)C(=O)c2cnc(C)cn2)c(=O)[nH]c1=O | 3.1
36 | CCOC(=O)c1c(C)[nH]c(C)c1C(=O)CSc1nnc(-c2ccncc2)n1C | 9.26
37 | Cc1nc(C)c(C(=O)N2CCCC(C(=O)c3ccc(Cl)cc3C)C2)s1 (centres unmarked) | 0.189
38 | O=C(O)C1CC=CCC1C(=O)NCc1ccc2c(c1)OCO2 (centres unmarked) | -8.18
39 | CCC(Sc1ccc2nnc(-c3cccnc3)n2n1)C(=O)OC (centres unmarked) | -3.12
40 | O=C(Cc1ccc(Br)cc1)NCCc1ccc(Cl)cc1Cl | 1.4
41 | O=C(O)c1ccc(C2Nc3ccccc3C(=O)N2Cc2ccccc2)cc1 (centres unmarked) | 10.7
42 | CCOC(=O)C1=NN(C(=O)Cc2ccccc2)C(O)(c2ccc(Cl)cc2)C1 (centres unmarked) | 0.787
43 | CC(C#N)(Cc1ccccc1)Nc1ccccc1 (centres unmarked) | 12.1
44 | O=C(Nc1ccc2c(c1)OCCO2)c1ccc(NC(=O)C2CCCO2)cc1 (centres unmarked) | 14.1
45 | CC(C)c1ccc(NC(=O)C2C3C=CC4(O3)C2C(=O)N(CCN2CCOCC2)C4C(=O)NC2CCCCC2)cc1 (centres unmarked) | 14.4
46 | CSc1ccc(CN2CCN(C(C)C)C(CCO)C2)cc1 (centres unmarked) | 0.994

Row | Compound | hERG current change (%, negative = inhibition) at 1uM [%]
47 | CCOc1ccc(NC(=S)NC(=O)c2c(Cl)cnn2CC)c([N+](=O)[O-])c1 | 8.49
48 | O=C(c1ccc(-c2ccc([N+](=O)[O-])cc2)o1)N1CCN(S(=O)(=O)c2cccs2)CC1 | -3.72
49 | COc1ccc(/C=N/n2cnnc2)cc1COc1ccccn1 | -5.84
50 | Cl.O=S(=O)(c1ccc2ccccc2c1)N(CC(O)CN1CCOCC1)c1ccccc1 (centres unmarked) | -21.2
51 | CC1CCN(CCCNC(=O)CCCNC(=O)Cn2cnc3sc4c(c3c2=O)CCCC4)CC1 | 3.67
52 | COc1ccc(NC(=O)c2cc(C)nc3ccccc23)c(OC)c1 | 7.39
53 | Cc1n[nH]c(=S)n1-c1ccccc1 | 14.5
54 | C/C(=N\Nc1ccc([N+](=O)[O-])cc1)c1cc2ccccc2o1 | 10.5
55 | COc1cc(=O)[nH]c(SCC(=O)Nc2nc3c(s2)CCCC3)n1 | 11.5
56 | CCN(CC)CC(=O)Nc1c(Br)ccc2c1OCO2.Cl | 16
57 | CN(C)CCC#CC(O)(c1ccccc1)c1ccccc1 | 11.9
58 | O=C(O)c1ccc(N=Nc2c(O)[nH]c3ccccc23)cc1 | 13.4
59 | CC(=O)Nc1ccc(S(=O)(=O)N2CCC(NC(=O)C(Cc3cccn3C)NC(C)=O)CC2)cc1 (centres unmarked) | 6.73
60 | CCOc1cc(CNc2ccc(O)cc2)cc(Br)c1OCc1ccccc1F | 13.6
61 | CN1CCN(S(=O)(=O)c2cccc(C(=O)Nc3nccs3)c2)CC1 | 12.4
62 | CCOC(=O)c1nc(C)nc(Sc2n[nH]c(-c3ccccc3)n2)c1C | 0.522
63 | CCOC(=O)c1sc(NC(=O)CSc2n[nH]c(C)n2)nc1C | 15.6
64 | NC(=O)CC(NC(=O)c1ccccc1)c1ccc(N2CCC(Br)CC2)c([N+](=O)[O-])c1 (centres unmarked) | 5.81
65 | CC(=O)N1N=C2/C(=C/c3ccccc3)CCCC2C1c1ccccc1 (centres unmarked) | 5.48
66 | Cc1nc(C(=O)NNC(=O)Nc2ccc(Cl)cc2)cs1 | 5.79
67 | COc1ccc(-c2csc(N(Cc3ccccc3)C(=O)COc3ccc(Cl)cc3)n2)cc1 | 2.58
68 | CC(=O)Nc1nonc1-c1nc2ccccc2n1CC1CC1 | 0.848
69 | CC1CCN(CCC(=O)Nc2ccccc2)CC1 | 5.54

Row | Compound | hERG current change (%, negative = inhibition) at 1uM [%]
70 | O=C(O)C1CC1(c1ccccc1)c1ccccc1 (centres unmarked) | 13.6
71 | Cc1ccc(C(=O)NCC(=O)NCC(=O)OCC(=O)c2ccc(F)cc2)cc1 | 6.21
72 | CC(Sc1nc2ccccc2c(=O)n1C)C(=O)N(C)C1CCCCC1 (centres unmarked) | -10.3
73 | CCc1n[nH]c(=S)n1N=C1CCC(C)CC1 (centres unmarked) | 9.49
74 | COc1cc(/C=C/c2nnc3c4ccccc4ncn23)cc(OC)c1OC | 11.8
75 | O=C1CCCN1CCCNc1nc2c(S(=O)(=O)c3ccc(Br)cc3)nnn2c2ccccc12 | 17.5
76 | Cc1ccc(S(=O)(=O)N2CCOCC2)cc1C(=O)NCc1cccnc1 | 15.1
77 | O=c1cc(NCc2ccccc2)c2ccccc2o1 | -4.32
78 | O=c1c2c3c(sc2nc2n1CCCC2)CCCC3 | 8.98
79 | COc1ccc(C(C)NCCC(c2ccc(OC(C)C)cc2)c2ccccc2OC)cc1 (centres unmarked) | 5.45
80 | CC(C)N=c1cc2n(-c3ccc(Cl)cc3)c3ccccc3nc-2cc1Nc1ccc(Cl)cc1 | 21.4
81 | Cc1ccc(-c2c(C)n([O-])c3c([n+]2=O)CCCC3)cc1 | 14.6
82 | Cc1ccc(C(=O)NCC2CCCO2)cc1[N+](=O)[O-] (centres unmarked) | 8.55
83 | CCN(CC)CCCN(Cc1cc2cc(OC)c(OC)cc2[nH]c1=O)C(=O)Nc1ccccc1 | 8.53
84 | O=C(NC(=S)Nc1ncc(Br)cc1Br)c1ccccc1 | 15.1
85 | O=C(c1cccn2c(=O)c3ccccc3nc12)N1CCC2(CC1)OCCO2 | 17.4
86 | CCCCNC(=O)c1cc(-c2ccc(OC)cc2)on1 | -5.44
87 | CC(=O)NC1=NC(=O)/C(=C/c2cn(C(C)=O)nc2-c2ccccc2)S1 | 4.68
88 | COc1ccccc1NC(=O)c1ccc2c(O)c(S(=O)(=O)c3ccccc3)c(=O)[nH]c2c1 | 10.6
89 | Cc1cccc([C@@H]2[C@@H]3C(=O)N(Cc4ccccc4)C(=O)[C@@H]3[C@]3(C)C(=O)N(c4ccc(C(F)(F)F)cc4)C(=O)N23)c1 | 9.23
